# Among all 48,000 compounds or so, about 120 (0.25%) were called active. Another 4% or so got no clear call; they are omitted. Calls follow the shape of the dose curve; as a rule, active = well fitted activation curve with a large enough effect; inconclusive = small, poorly fitted or top-dose-only effect, or another doubt; inactive = no such curve, though single readings can be large or run the other way. The list shows a part of the results.
# Test: Primary qHTS for Identification of Small Molecule Activators of Huntingtin-Antisense Promoter Activity; also: nearly all actives have a fitted effect of over 55% in size
# Conditions: HEK293 HTT-AS promoter firefly luciferase reporter (activity 0% = vehicle and -100% = no light), 24 h; series mostly up to 57.5 µM; activity change, positive = activation: at the top concentration
# Summary of the method: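 Firefly luciferase signal from promoter-reporter HEK293 cells was scaled between vehicle (0%) and zero RLU (-100%). Compounds were tested at final concentrations of up to 57.5 uM over 24 h at 37 degrees C. PTC124 at 50 uM final served as control inhibitor.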
row,Compound,"activity change, positive = activation"
1,COc1ccc(Cl)cc1NC(=O)CSc1nc(-c2ccccc2)c2ccccc2n1,inactive: -5.28%
2,COc1cccc(-c2nc(SCC(=O)NC3CCCC3)c(-c3ccc(F)cc3)[nH]2)c1,inactive: -28.2%
3,CC1CCN(S(=O)(=O)c2ccc3nc(Nc4cccc(C(F)(F)F)c4)ccc3c2)CC1,inactive: -37.8%
4,CC(C)c1ccc(/C=C(\C#N)c2nc(-c3cc4ccccc4oc3=O)cs2)cc1,inactive: 6.72%
5,CCOc1ccccc1NC(=O)C1=C(C)Nc2ncnn2C1c1ccccn1 (centres undefined),inactive: -9.54%
6,CCOC(=O)CCn1cnc2onc(-c3ccccc3Cl)c2c1=O,inactive: 7.62%
7,COC(=O)c1ccc(Nc2ncnc3c2cnn3-c2ccccc2)cc1,inactive: -2.03%
8,COc1cc(Cl)c(C)cc1NS(=O)(=O)c1c(C)nc2sccn2c1=O,inactive: -18.3%
9,COc1ccc(C2=C(C)C(=O)N(Cc3ccc(C(=O)Nc4ccc(C)c(C)c4)cc3)S2(=O)=O)cc1,inactive: -17.9%
10,O=C(CCCCCCCCC#CI)Oc1ccccc1,inactive: -18.9%
11,COc1ccc(NC(=O)CN(c2ccccc2OC)S(C)(=O)=O)c(OC)c1,inactive: -4.28%
12,COc1cc(NC(=O)CCc2c(C)nc3c4c(C)cc(C)nc4nn3c2C)cc(OC)c1,inactive: -0.707%
13,Cc1cc(C)cc(NC(=O)CCCn2nc(C)c3c(C)n(-c4ccccc4)nc3c2=O)c1,inactive: -12.5%
14,COc1cc(-c2nnc(SCC(=O)Oc3ccc(C)cc3C)o2)cc(OC)c1OC,inactive: -0.103%
15,Cc1ccc(CNC(=O)c2nc(S(=O)(=O)Cc3ccc(C)cc3)ncc2Cl)cc1,inactive: -17.8%
16,CCOC(=O)C1(C)C=C(Nc2cccc(C)c2)C(=O)N1c1ccccc1 (centres undefined),inactive: -22.3%
17,O=C(NCc1ccccc1)N1CCc2c(sc3c2CCCC3)C1c1ccccc1 (centres undefined),inactive: -16.2%
18,COC(=O)c1ccc2c(=O)n(CCCCCC(=O)NC(C)C)c(=O)[nH]c2c1,inactive: -61.6%
19,Cc1cc(C)cc(NC(=O)CCS(=O)(=O)c2ccc3c(c2)oc(=O)n3C)c1,inactive: -5.4%
20,Cc1ccc(Cl)cc1NC(=O)N1CCc2cc(S(=O)(=O)N3CCC(C)CC3)ccc21,inactive: 1.26%
21,CCOc1ccc(C(=O)Nc2ccc3nc(SCC(=O)N(C)c4ccccc4)sc3c2)cc1,inactive: -50.7%
22,CCOC(=O)c1cc(-c2ccc(OC)cc2)n(CCC(=O)Nc2ccc(OC)cc2OC)c1C,inactive: -32.4%
23,COc1ccccc1CNC(=O)c1ccc(Nc2nc3ccccc3n3nnnc23)cc1,inactive: -1.2%
24,CCOc1ccc(/C=C/c2nc3ccccc3n2S(=O)(=O)c2cccc(Cl)c2)cc1,inactive: -55%

row,Compound,"activity change, positive = activation"
1,CCc1ccccc1-n1c2c(cc(-c3nc(-c4ccc(Cl)cc4)cs3)c1=O)C(=O)CC(C)(C)C2,inactive: -17%
2,COc1ccc(Cc2nc3ccc(C(=O)NCCc4ccccc4)cc3o2)cc1,inactive: -37.3%
3,CCOC(=O)c1c(C)[nH]c(C)c1S(=O)(=O)N1CCN(c2ccc(Cl)cc2)CC1,inactive: -21.8%
4,CC(=O)N1c2ccc(S(=O)(=O)NCC3CCC(C(=O)Nc4ccc(F)cc4)CC3)cc2CC1C (centres undefined),inactive: -32.6%
5,O=C(COc1ccc(F)cc1)NC1CC(=O)N(c2ccc3c(c2)OCCO3)C1 (centres undefined),inactive: -9.6%
6,COc1cccc(NC(=O)C2CCN(c3cc(C)nc4c(-c5ccc(Cl)cc5)c(C)nn34)CC2)c1,inactive: -17.5%
7,Cc1ccc(-c2nn3c(=O)cc(CN4CCN(S(=O)(=O)c5ccc(Cl)cc5)CC4)nc3s2)cc1,inactive: -13.2%
8,COc1ccc(CNC(=O)c2ccc3c(c2)CCN3S(=O)(=O)c2ccc(Cl)cc2)cc1,inactive: -14.5%
9,COC[C@@H](c1ccc(C(F)(F)F)cc1)N1CCN(C2(C)CCN(C(=O)c3c(C)ncnc3C)CC2)C[C@H]1C,inactive: -16.6%
10,CCOc1ccc(OCC)c(NS(=O)(=O)c2ccc3[nH]c(=O)ccc3c2)c1,inactive: -14%
11,CC(=O)Nc1ccc(NC(=O)Cn2c(=O)ccc3cc(S(=O)(=O)N4CCC(C)CC4)ccc32)cc1,inactive: -12.8%
12,CC(NC(=O)C1=Cc2ccccc2OC1)c1ccccc1 (centres undefined),inactive: -11.8%
13,COc1cc2nc(SCC(=O)Nc3cccc(C)c3)n3nc(CCn4c(C)nc5ccccc54)nc3c2cc1OC,inactive: -1.2%
14,Cn1c(=O)cc(OCC(=O)N2CCN(c3ccc(F)cc3)CC2)c2ccccc21,inactive: -8.31%
15,CCOc1ccccc1Nc1ncnc2c1c(-c1ccccc1)cn2-c1ccc(OC)cc1,inactive: -16.2%
16,CCOCN(C(=O)Cn1c(CC(C)C)nc2ccccc21)c1c(C)cccc1CC,inactive: -25.4%
17,CC(C)c1ccc(NC(=O)C(NS(=O)(=O)c2ccc3c(c2)CCC(=O)N3)c2ccccc2)cc1 (centres undefined),inactive: -7.84%
18,COc1cc(OC)cc(-c2cc3nc(C)c(CCC(=O)Nc4ccc(F)c(Cl)c4)c(C)n3n2)c1,inactive: -82.6%
19,Cc1c(Cl)cccc1NC(=O)C(C)N(c1ccccc1)S(C)(=O)=O (centres undefined),inactive: -12.5%
20,Cc1ccc(-c2cn3cccnc3n2)cc1NC(=O)Cc1ccccc1,inactive: -0.686%
21,O=S(=O)(c1ccccc1)c1nc(-c2ccccc2)oc1N1CCN(c2cccc(Cl)c2)CC1,inactive: -16.1%
22,O=C(CSCc1cnn(-c2ccccc2)c1-n1cccc1)NCc1ccccc1Br,inactive: -29.2%
23,CCc1ccc(NC(=O)COCc2cc(-c3ccc(F)cc3)on2)cc1,inactive: 2.45%
24,CC(=O)Nc1ccc(S(=O)(=O)N(Cc2ccccc2)Cc2ccccc2)cc1,inactive: -29.3%

row,Compound,"activity change, positive = activation"
1,CCOc1ccccc1-c1nc(C(N)=O)c2c(n1)n(-c1ccc3c(c1)OCO3)c(=O)n2C,inactive: -8.88%
2,C=Cc1ccc(Cn2c(=O)n(CC3CCC(C(=O)NC(C)C)CC3)c(=O)c3sccc32)cc1 (centres undefined),inactive: -15.7%
3,O=C(NCc1ccco1)c1ccc2c(c1)N(Cc1ccccc1F)C(=O)c1ccccc1S2(=O)=O,inactive: -21.3%
4,CCn1c(=O)cc(SCC(=O)NCc2ccc(C)cc2)c2ccccc21,inactive: 21.7%
5,CCCCNC(=O)c1ccc2c(c1)NC(=O)C(CS(=O)(=O)Cc1ccc(F)cc1Cl)N2 (centres undefined),inactive: -20.2%
6,COc1cccc(-c2ccc3c(N)c(C(=O)Nc4ccccc4C)sc3n2)c1,inactive: -6.87%
7,CCCC(=O)Nc1ccc2nc(SCc3ccc(C)cc3)sc2c1,inactive: -12.5%
8,Nc1ccc2oc(Cc3ccc(Cl)cc3)nc2c1,inactive: -11.1%
9,COc1ccc(C)cc1NC(=O)Cc1c(C(=O)O)c(C)cn1C,inactive: -14.6%
10,CCOc1ccc(NC(=O)CN(C)S(=O)(=O)c2ccc3[nH]c4c(c3c2)CCCC4)cc1,inactive: -31.6%
11,COc1ccc(C(=O)N2CCN(c3nc4c(C)c(Cl)ccc4s3)CC2)c(OC)c1,inactive: -30.4%
12,CCCCNc1nc2c(c(=O)n(Cc3ccccc3)c(=O)n2C)n1C,inactive: -5.85%
13,Cc1ccc(Cl)cc1N1CCN(C(=O)C2CCCN(Cc3nc(-c4cccc(Cl)c4)oc3C)C2)CC1 (centres undefined),inactive: -46.1%
14,COc1ccc(N(C)C(=O)c2cc3c(s2)-c2ccccc2OC3)cc1,inactive: -7.39%
15,Cc1ccc(NC(=O)C2CCCN(S(=O)(=O)c3ccc4c(c3)CCCC(=O)N4)C2)cc1Cl (centres undefined),inactive: -36.8%
16,O=C(c1ccc(Cl)cc1)c1cn(Cc2ccccc2)c2cc3c(cc2c1=O)OCCO3,inactive: -16.5%
17,Cc1ccc(NC(=O)Cn2c(=O)ccc3cc(S(=O)(=O)N4CCCC4)ccc32)cc1N(C)C,inactive: -33.5%
18,Cc1cc(C(=O)Nc2cccc(C)c2C)c2c(C)nn(-c3cccc(F)c3)c2n1,inactive: -8.09%
19,COc1cc(OC)c(OC)cc1/C=C/c1nc2ccccc2c(=O)n1-c1ccc(Br)c(C)c1,inactive: -20.6%
20,O=C(NCc1ccc(Cl)cc1)c1ccc2c(c1)N(Cc1ccccc1F)C(=O)c1ccccc1S2=O (centres undefined),inactive: -20.7%
21,CCc1ccc(CNC(=O)c2ccc(CS(=O)(=O)Cc3cccc(C)c3)o2)cc1,inactive: -29.3%
22,COc1ccc(CCNC(=O)C(=O)NCC(c2cccnc2)N2CCN(c3ccccc3)CC2)cc1 (centres undefined),inactive: -63.7%
23,CCC(C(=O)NCCc1ccc(Cl)cc1)n1ccc2cc(S(=O)(=O)N3CCCCC3)ccc21 (centres undefined),inactive: -31.3%
24,Cc1cccc(C)c1NC(=O)CN1C(=O)c2ccccc2Sc2ncccc21,inactive: -8.35%

row,Compound,"activity change, positive = activation"
1,COC(=O)c1cc2sc(C)cc2n1CC(=O)Nc1ccc(C)cc1Cl,inactive: -11%
2,COc1ccc(-c2noc(CSc3nnc(-c4ccccc4)n3C)n2)cc1,inactive: -6.65%
3,CCCOC(=O)c1ccc(Nc2c(C(=O)OCC)cnc3c(C)cc(Cl)cc23)cc1,inactive: -20.9%
4,CC(C)OCCCNC(=O)c1nn(C)c2c1CSc1ccccc1-2,inactive: -5.37%
5,CC(=O)N1CCN(c2ccc(OC[C@H]3CO[C@](Cn4ccnc4)(c4ccc(Cl)cc4Cl)O3)cc2)CC1,inactive: -31%
6,COc1ccc(C)cc1NC(=O)CN1CCN(S(=O)(=O)c2ccc(Br)cc2)CC1,inactive: -22.5%
7,Cc1cccc(-n2cnc3cc(C(=O)NC4CCCCCC4)ccc32)c1,inactive: -36.1%
8,CC(C)CCn1c(=O)c2sccc2n2c(CCCC(=O)NC(C)c3ccccc3)nnc12 (centres undefined),inactive: 2.46%
9,CC(=O)c1cccc(NC(=O)CSc2nc3c(=O)n(C)c(=O)n(C)c3n2C)c1,inactive: 11.8%
10,Cc1cccc(OCC(=O)Nc2ccccc2C(=O)OCc2cc(=O)n3nc(C4CC4)sc3n2)c1,inactive: 16.8%
11,Cc1ccc(CCNC(=O)c2cc3c(=O)n(C)c4ccccc4c3n2C)cc1,inactive: -8.57%
12,CC(=O)[C@H]1CC[C@H]2[C@@H]3CCC4=CC(=O)CC[C@]4(C)[C@H]3CC[C@]12C,inactive: -34.1%
13,Cc1cccc(N2CCN(c3nc4ccccc4c4nc(-c5cccnc5)nn34)CC2)c1C,inactive: -9.37%
14,CCc1cccc(N2C(=O)N(Cc3c(F)cccc3Cl)c3ccccc3S2(=O)=O)c1,inactive: -13%
15,CCn1cc(C(=O)Nc2ccc(C(C)C)cc2)c2cc(OC)c(OC)cc2c1=O,inactive: -41.6%
16,CCOC(=O)c1ccc(NC(=O)c2c(NCc3cc(OC)ccc3OC)sc3c2CCC3)cc1,inactive: 5.68%
17,CCc1cnc2c(c1SCCC(C)C)c(=O)n(C)c(=O)n2C,inactive: -36.5%
18,Cc1cccc(Oc2ccc(NC(=O)CCC(=O)OCC(=O)c3ccc(Br)cc3)cc2)c1C,inactive: -12.9%
19,COc1cccc(C(C(=O)NCc2ccccc2)N(C(=O)Cn2nnc3ccccc32)c2cccc(C(C)=O)c2)c1 (centres undefined),inactive: -11.1%
20,Cc1ccc(C)c(CSc2cn(CCNC(=O)c3ccccc3F)c3ccccc23)c1,inactive: -40.9%
21,COc1cc(C2c3c(-c4ccccc4O)n[nH]c3C(=O)N2CCO)ccc1OCC(C)C (centres undefined),inactive: -16.1%
22,COc1ccc(Cc2c(C)nn(-c3nc(C)c(C(=O)Nc4ccc(C)cc4C)s3)c2C)cc1,inactive: -15.4%

# From PubChem BioAssay AID1508624 (National Center for Advancing Translational Sciences (NCATS), 2021)
